From the supplement of paper PMC12217912
Some of the results follow. The full chains were built here from the parent and the listed change. Values near 0.05 are background.

B1: TEV protease; numbered along this chain (parent)
chain: MGESLFKGPRDYNPISSSICHLTNESDGHTTSLYGIGFGPFIITNKHLFRRNNGTLVVQSLHGVFKVKDTTTLQQHLVDGRDMIIIRMPKDFPPFPQKLKFREPQREERICLVTTNFQTKSMSSMVSDTSCTFPSGDGIFWKHWIQTKDGQCGSPLVSTRDGFIVGIHSASNFTNTNNYFTSVPKNFMELLTNQEAQQWVSGWRLNADSVLWGGHKVFMVKPEEPFQPVKEATQL

Variants of: B1
Experiment: raw area under fraction-flipped curve 0-4 h after induction (AUC4h, not background-subtracted), DNA-recorder readout of cleavage of the substrate (dimensionless); higher = more cleavage of the substrate by the protease variant
Settings: temperature: 34 °C; time window: 0-4 h after rhamnose induction
Description: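 In vivo DNA recorder in E. coli TOP10(DE3) ΔrhaA at 34 °C. Each TEVp single-site mutant (parent TEVp 0) is paired with a single-site variant of the 7-mer TEVs (canonical ENLYFQ|S). The substrate sits between flexible linkers in a Bxb1-sfGFP-TEVs-SsrA fusion, so cleavage stabilises Bxb1 and speeds flipping of a recombination array, read by NGS. The value is the raw area under the fraction-flipped curve over 0-4 h after rhamnose induction (AUC4h), with ≥20 reads per time point. It is not background-subtracted; inactive controls average about 0.047.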
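Also: Bxb1 expression induced with 0.2% (w/v) L-rhamnose at OD600 near 0.5, cultures sampled hourly, flipped fraction per protease–substrate barcode pair counted by paired-end Illumina sequencing.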

Variant | area with substrate CNLYFQS | area with substrate FNLYFQS | area with substrate HNLYFQS | area with substrate LNLYFQS | area with substrate NNLYFQS | area with substrate PNLYFQS | area with substrate TNLYFQS | area with substrate WNLYFQS | area with substrate GNLYFQS | area with substrate KNLYFQS
MGESLFKGPRDYNPISSSICHLTNESDGHTTSLYGIGFGPFIITNKHLFRRNNGTLVVQSLHGVFKVKDTTTLQQHLVDGRDMIIIRMPKDFPPFPQKLKFREPQREERICLVTTNFPTKSMSSMVSDTSCTFPSGDGIFWKHWIQTKDGQCGSPLVSTRDGFIVGIHSASNFTNTNNYFTSVPKNFMELLTNQEAQQWVSGWRLNADSVLWGGHKVFMVKPEEPFQPVKEATQL [Q118P] | 0.0787 | 0.077 | 0.0416 | 0.0707 | 0.0735 | 0.0623 | 0.0649 | 0.0758 |  | 
MGESLFKGPRDYNPISSSICHLTNESDGHTTSLYGIGFGPFIITNKHLFRRNNGTLVVQSLHGVFKVKDTTTLQQHLVDGRDMIIIRMPKDFPPFPQKLKFREPQREERICLVTTNFRTKSMSSMVSDTSCTFPSGDGIFWKHWIQTKDGQCGSPLVSTRDGFIVGIHSASNFTNTNNYFTSVPKNFMELLTNQEAQQWVSGWRLNADSVLWGGHKVFMVKPEEPFQPVKEATQL [Q118R] | 0.056 | 0.0469 | 0.0569 | 0.0691 |  |  |  |  | 0.0672 | 0.0359
MGESLFKGPRDYNPISSSICHLTNESDGHTTSLYGIGFGPFIITNKHLFRRNNGTLVVQSLHGVFKVKDTTTLQQHLVDGRDMIIIRMPKDFPPFPQKLKFREPQREERICLVTTNFKTKSMSSMVSDTSCTFPSGDGIFWKHWIQTKDGQCGSPLVSTRDGFIVGIHSASNFTNTNNYFTSVPKNFMELLTNQEAQQWVSGWRLNADSVLWGGHKVFMVKPEEPFQPVKEATQL [Q118K] | 0.104 |  |  |  |  | 0.0584 |  | 0.067 | 0.0816 | 
MGESLFKGPRDYNPISSSICHLTNESDGHTTSLYGIGFGPFIITNKHLFRRNNGTLVVQSLHGVFKVKDTTTLQQHLVDGRDMIIIRMPKDFPPFPQKLKFREPQREERICLVTTNFITKSMSSMVSDTSCTFPSGDGIFWKHWIQTKDGQCGSPLVSTRDGFIVGIHSASNFTNTNNYFTSVPKNFMELLTNQEAQQWVSGWRLNADSVLWGGHKVFMVKPEEPFQPVKEATQL [Q118I] | 0.0789 |  | 0.0619 |  | 0.0781 |  |  |  | 0.064 | 
MGESLFKGPRDYNPISSSICHLTNESDGHTTSLYGIGFGPFIITNKHLFRRNNGTLVVQSLHGVFKVKDTTTLQQHLVDGRDMIIIRMPKDFPPFPQKLKFREPQREERICLVTTNFDTKSMSSMVSDTSCTFPSGDGIFWKHWIQTKDGQCGSPLVSTRDGFIVGIHSASNFTNTNNYFTSVPKNFMELLTNQEAQQWVSGWRLNADSVLWGGHKVFMVKPEEPFQPVKEATQL [Q118D] | 0.0577 |  |  |  |  |  | 0.0566 | 0.0516 |  | 
MGESLFKGPRDYNPISSSICHLTNESDGHTTSLYGIGFGPFIITNKHLFRRNNGTLVVQSLHGVFKVKDTTTLQQHLVDGRDMIIIRMPKDFPPFPQKLKFREPQREERICLVTTNSQTKSMSSMVSDTSCTFPSGDGIFWKHWIQTKDGQCGSPLVSTRDGFIVGIHSASNFTNTNNYFTSVPKNFMELLTNQEAQQWVSGWRLNADSVLWGGHKVFMVKPEEPFQPVKEATQL [F117S] | 0.0698 |  | 0.0584 |  | 0.0645 | 0.0666 | 0.0611 | 0.0662 |  | 0.0479
MGESLFKGPRDYNPISSSICHLTNESDGHTTSLYGIGFGPFIITNKHLFRRNNGTLVVQSLHGVFKVKDTTTLQQHLVDGRDMIIIRMPKDFPPFPQKLKFREPQREERICLVTTNQQTKSMSSMVSDTSCTFPSGDGIFWKHWIQTKDGQCGSPLVSTRDGFIVGIHSASNFTNTNNYFTSVPKNFMELLTNQEAQQWVSGWRLNADSVLWGGHKVFMVKPEEPFQPVKEATQL [F117Q] | 0.11 |  | 0.0722 | 0.0528 | 0.091 | 0.0683 | 0.0482 | 0.068 |  | 
MGESLFKGPRDYNPISSSICHLTNESDGHTTSLYGIGFGPFIITNKHLFRRNNGTLVVQSLHGVFKVKDTTTLQQHLVDGRDMIIIRMPKDFPPFPQKLKFREPQREERICLVTTNFQDKSMSSMVSDTSCTFPSGDGIFWKHWIQTKDGQCGSPLVSTRDGFIVGIHSASNFTNTNNYFTSVPKNFMELLTNQEAQQWVSGWRLNADSVLWGGHKVFMVKPEEPFQPVKEATQL [T119D] | 0.048 |  | 0.0678 | 0.0194 | 0.0304 | 0.0681 | 0.0626 | 0.068 |  | 0.0742
MGESLFKGPRDYNPISSSICHLTNESDGHTTSLYGIGFGPFIITNKHLFRRNNGTLVVQSLHGVFKVKDTTTLQQHLVDGRDMIIIRMPKDFPPFPQKLKFREPQREERICLVTTNFQYKSMSSMVSDTSCTFPSGDGIFWKHWIQTKDGQCGSPLVSTRDGFIVGIHSASNFTNTNNYFTSVPKNFMELLTNQEAQQWVSGWRLNADSVLWGGHKVFMVKPEEPFQPVKEATQL [T119Y] | 0.0603 |  | 0.051 |  | 0.0654 |  | 0.0594 |  |  | 0.0791
MGESLFKGPRDYNPISSSICHLTNESDGHTTSLYGIGFGPFIITNKHLFRRNNGTLVVQSLHGVFKVKDTTTLQQHLVDGRDMIIIRMPKDFPPFPQKLKFREPQREERICLVTTNFQVKSMSSMVSDTSCTFPSGDGIFWKHWIQTKDGQCGSPLVSTRDGFIVGIHSASNFTNTNNYFTSVPKNFMELLTNQEAQQWVSGWRLNADSVLWGGHKVFMVKPEEPFQPVKEATQL [T119V] | 0.0695 | 0.061 | 0.0735 |  |  | 0.0693 | 0.0713 |  |  | 0.0642

Same assay, conditions: temperature: 34 °C; time window: 0-4 h after rhamnose induction

Variant | area with substrate RNLYFQS | area with substrate SNLYFQS | area with substrate VNLYFQS | area with substrate YNLYFQS | area with substrate INLYFQS | area with substrate MNLYFQS | area with substrate QNLYFQS
MGESLFKGPRDYNPISSSICHLTNESDGHTTSLYGIGFGPFIITNKHLFRRNNGTLVVQSLHGVFKVKDTTTLQQHLVDGRDMIIIRMPKDFPPFPQKLKFREPQREERICLVTTNFRTKSMSSMVSDTSCTFPSGDGIFWKHWIQTKDGQCGSPLVSTRDGFIVGIHSASNFTNTNNYFTSVPKNFMELLTNQEAQQWVSGWRLNADSVLWGGHKVFMVKPEEPFQPVKEATQL [Q118R] | 0.0546 | 0.0762 | 0.0973 | 0.0649 |  |  | 
MGESLFKGPRDYNPISSSICHLTNESDGHTTSLYGIGFGPFIITNKHLFRRNNGTLVVQSLHGVFKVKDTTTLQQHLVDGRDMIIIRMPKDFPPFPQKLKFREPQREERICLVTTNFKTKSMSSMVSDTSCTFPSGDGIFWKHWIQTKDGQCGSPLVSTRDGFIVGIHSASNFTNTNNYFTSVPKNFMELLTNQEAQQWVSGWRLNADSVLWGGHKVFMVKPEEPFQPVKEATQL [Q118K] | 0.0663 | 0.0661 |  |  | 0.0895 | 0.0672 | 
MGESLFKGPRDYNPISSSICHLTNESDGHTTSLYGIGFGPFIITNKHLFRRNNGTLVVQSLHGVFKVKDTTTLQQHLVDGRDMIIIRMPKDFPPFPQKLKFREPQREERICLVTTNFITKSMSSMVSDTSCTFPSGDGIFWKHWIQTKDGQCGSPLVSTRDGFIVGIHSASNFTNTNNYFTSVPKNFMELLTNQEAQQWVSGWRLNADSVLWGGHKVFMVKPEEPFQPVKEATQL [Q118I] | 0.065 |  | 0.0704 |  | 0.0524 |  | 
MGESLFKGPRDYNPISSSICHLTNESDGHTTSLYGIGFGPFIITNKHLFRRNNGTLVVQSLHGVFKVKDTTTLQQHLVDGRDMIIIRMPKDFPPFPQKLKFREPQREERICLVTTNFDTKSMSSMVSDTSCTFPSGDGIFWKHWIQTKDGQCGSPLVSTRDGFIVGIHSASNFTNTNNYFTSVPKNFMELLTNQEAQQWVSGWRLNADSVLWGGHKVFMVKPEEPFQPVKEATQL [Q118D] |  |  |  | 0.0672 | 0.0884 |  | 0.12
MGESLFKGPRDYNPISSSICHLTNESDGHTTSLYGIGFGPFIITNKHLFRRNNGTLVVQSLHGVFKVKDTTTLQQHLVDGRDMIIIRMPKDFPPFPQKLKFREPQREERICLVTTNSQTKSMSSMVSDTSCTFPSGDGIFWKHWIQTKDGQCGSPLVSTRDGFIVGIHSASNFTNTNNYFTSVPKNFMELLTNQEAQQWVSGWRLNADSVLWGGHKVFMVKPEEPFQPVKEATQL [F117S] |  |  | 0.065 | 0.0396 |  | 0.0716 | 
MGESLFKGPRDYNPISSSICHLTNESDGHTTSLYGIGFGPFIITNKHLFRRNNGTLVVQSLHGVFKVKDTTTLQQHLVDGRDMIIIRMPKDFPPFPQKLKFREPQREERICLVTTNQQTKSMSSMVSDTSCTFPSGDGIFWKHWIQTKDGQCGSPLVSTRDGFIVGIHSASNFTNTNNYFTSVPKNFMELLTNQEAQQWVSGWRLNADSVLWGGHKVFMVKPEEPFQPVKEATQL [F117Q] | 0.0347 | 0.0769 | 0.0721 |  |  |  | 
MGESLFKGPRDYNPISSSICHLTNESDGHTTSLYGIGFGPFIITNKHLFRRNNGTLVVQSLHGVFKVKDTTTLQQHLVDGRDMIIIRMPKDFPPFPQKLKFREPQREERICLVTTNFQDKSMSSMVSDTSCTFPSGDGIFWKHWIQTKDGQCGSPLVSTRDGFIVGIHSASNFTNTNNYFTSVPKNFMELLTNQEAQQWVSGWRLNADSVLWGGHKVFMVKPEEPFQPVKEATQL [T119D] |  | 0.0678 |  |  |  |  | 
MGESLFKGPRDYNPISSSICHLTNESDGHTTSLYGIGFGPFIITNKHLFRRNNGTLVVQSLHGVFKVKDTTTLQQHLVDGRDMIIIRMPKDFPPFPQKLKFREPQREERICLVTTNFQYKSMSSMVSDTSCTFPSGDGIFWKHWIQTKDGQCGSPLVSTRDGFIVGIHSASNFTNTNNYFTSVPKNFMELLTNQEAQQWVSGWRLNADSVLWGGHKVFMVKPEEPFQPVKEATQL [T119Y] |  |  |  | 0.0616 | 0.0616 | 0.074 | 
MGESLFKGPRDYNPISSSICHLTNESDGHTTSLYGIGFGPFIITNKHLFRRNNGTLVVQSLHGVFKVKDTTTLQQHLVDGRDMIIIRMPKDFPPFPQKLKFREPQREERICLVTTNFQVKSMSSMVSDTSCTFPSGDGIFWKHWIQTKDGQCGSPLVSTRDGFIVGIHSASNFTNTNNYFTSVPKNFMELLTNQEAQQWVSGWRLNADSVLWGGHKVFMVKPEEPFQPVKEATQL [T119V] |  | 0.0557 |  |  | 0.065 |  | 
